Assay results taken from the supplement of paper PMC9446081.
Hit rate of the full screen: of about 39,000 compounds, about 220 (0.56%) showed activity. The list shows a part of the results.

Tested on: Escherichia coli K-12 BW25113
Test: relative growth (OD600 normalised to plate interquartile mean) (fraction); higher = less growth inhibition, active = 0.2 or less
Conditions: 50 µM; LB; incubation time: overnight (16-24 h)
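Also: static incubation at 37 °C against the wild-type strain, values averaged over two biological replicates.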

SMILES	relative growth
COc1ccc(S(=O)(=O)Nc2ccc3c(c2)[C@H]2C[C@@H](CC(=O)NCC4CC4)O[C@H](CO)[C@H]2O3)cc1	inactive: 1.02
O=C(C[C@H]1C=C[C@@H](NC(=O)c2cccc(F)c2)[C@H](CO)O1)NCCN1CCCC1	inactive: 0.999
COc1ccc(S(=O)(=O)Nc2ccc3c(c2)C(=O)N([C@H](C)CO)C[C@@H](C)[C@@H](CN(C)C(=O)Nc2cccc4ccccc24)O3)cc1	inactive: 1.01
COc1ccc(NC(=O)N(C)C[C@@H]2Oc3ccc(NS(=O)(=O)c4cn(C)cn4)cc3CC(=O)N([C@@H](C)CO)C[C@H]2C)cc1	inactive: 0.997
COc1cc(C(=O)O)cc(OC)c1O	inactive: 0.967
C[C@@H]1CCCCO[C@H](CN(C)C(=O)CCCN(C)C)[C@H](C)CN([C@@H](C)CO)C(=O)c2cc(NC(=O)Nc3ccc(C(F)(F)F)cc3)ccc2O1	inactive: 0.939
C[C@@H]1CN([C@H](C)CO)C(=O)c2cc(NS(=O)(=O)c3ccccc3)ccc2O[C@H]1CN(C)C(=O)Nc1cccc2ccccc12	inactive: 1.02
C[C@H](CO)N1C[C@H](C)[C@H](CN(C)Cc2ccc(-c3ccccc3)cc2)Oc2c(NC(=O)C3CCOCC3)cccc2C1=O	inactive: 1
C[C@@H]1CN([C@@H](C)CO)C(=O)c2cc(Br)cnc2O[C@@H]1CN(C)S(C)(=O)=O	inactive: 1.02
COCCOC(=O)N1C(=O)[C@@]2(c3cc(C#CCC(C(=O)OC)C(=O)OC)ccc31)[C@H](C(=O)N1CCc3cc(OC)c(OC)cc3C1)[C@H]1C(=O)O[C@H](c3ccccc3)[C@H](c3ccccc3)N1[C@@H]2c1ccc(O)cc1	inactive: 1.03
C[C@@H]1CN([C@@H](C)CO)S(=O)(=O)c2ccc(C#CC3CC3)cc2O[C@@H]1CN(C)C(=O)C1CCCCC1	inactive: 1.01
O=C(N[C@H]1C=C[C@H](CC(=O)N2CCOCC2)O[C@H]1CO)c1ccc2c(c1)OCO2	inactive: 1.01
CC/C=C\C/C=C\C/C=C\C/C=C\C/C=C\C/C=C\CCC(=O)OCC	inactive: 0.988
C[C@@H]1CN([C@H](C)CO)C(=O)c2cc(NC(=O)Nc3ccc(C(F)(F)F)cc3)ccc2O[C@@H](C)CCCCO[C@@H]1CN(C)Cc1ccc(C(F)(F)F)cc1	inactive: 1.03
C[C@H]1CN([C@@H](C)CO)C(=O)c2cc(C#Cc3ccccc3F)cnc2O[C@@H]1CN(C)C(=O)Cc1ccncc1	inactive: 0.991
C[n+]1cccc(C(=O)NO)c1	inactive: 0.985
O=C(C[C@H]1CC[C@@H]2[C@H](COC[C@H](O)CN2S(=O)(=O)c2ccc(Cl)cc2)O1)N[C@H]1CCN(Cc2ccccc2)C1	inactive: 0.999
